The antibiotic and cytotoxicity screens of Wong et al. (2023)
The other results are listed elsewhere or left out.

Test system: HSkMC (human skeletal muscle cells)
Experiment: cytotoxicity call (relative viability < 0.9)
Details: 10 µM

Structure (SMILES)	cytotoxicity call
O=C(NCCN1CCCC1)[C@H]1[C@H](CO)[C@H]2Cn3c(cccc3=O)[C@@H]1N2C(=O)c1ccccc1	inactive
COc1ccc(S(=O)(=O)N[C@H]2C=C[C@@H](CC(=O)NCCc3ccncc3)O[C@@H]2CO)cc1	inactive
C[C@@H]1CN([C@H](C)CO)C(=O)c2cc(NC(=O)Nc3ccc4c(c3)OCO4)ccc2O[C@H]1CN(C)C(=O)Nc1ccc(C(F)(F)F)cc1	inactive
C[C@H]1CN([C@@H](C)CO)S(=O)(=O)c2ccc(C#CC3CC3)cc2O[C@@H]1CN(C)C(=O)c1cccc(F)c1	inactive
COc1ccc(NC(=O)Nc2ccc3c(c2)C(=O)N([C@@H](C)CO)C[C@@H](C)[C@@H](CN(C)S(=O)(=O)c2ccc(Cl)cc2)OCCCC[C@@H](C)O3)cc1	inactive
C[C@@H]1CN([C@@H](C)CO)C(=O)c2cccc(NS(=O)(=O)c3cn(C)cn3)c2O[C@@H]1CN(C)Cc1ccccc1	inactive
Cc1ccc(S(=O)(=O)N(C)C[C@H]2Oc3ncc(-c4ccncc4)cc3C(=O)N([C@H](C)CO)C[C@H]2C)cc1	inactive
Cc1noc(C)c1S(=O)(=O)Nc1ccc2c(c1)CC(=O)N([C@@H](C)CO)C[C@@H](C)[C@@H](CN(C)S(=O)(=O)c1cn(C)cn1)O2	inactive
COc1ccc2cc(C(C)C(=O)O)ccc2c1 (stereo not given)	inactive
Cc1ccc(S(=O)(=O)Nc2ccc3c(c2)C(=O)N([C@@H](C)CO)C[C@@H](C)[C@H](CN(C)Cc2ccncc2)OCCCC[C@H](C)O3)cc1	inactive
C[C@H]1CCCCO[C@@H](CN(C)C(=O)Nc2ccc(C(F)(F)F)cc2)[C@@H](C)CN([C@@H](C)CO)C(=O)c2cc(NC(=O)Nc3ccc4c(c3)OCO4)ccc2O1	inactive
Cc1ccc(S(=O)(=O)N(C)C[C@@H]2Oc3ccc(NC(=O)c4ccncc4)cc3C(=O)N([C@@H](C)CO)C[C@H]2C)cc1	inactive
Cc1noc(C)c1NC(=O)Nc1cccc2c1O[C@H](CN(C)S(=O)(=O)c1cn(C)cn1)[C@@H](C)CN([C@H](C)CO)C2=O	inactive
C[C@H](CO)N1C[C@H](C)[C@H](CN(C)C(=O)Cc2cccnc2)Oc2cc(C#Cc3ccccc3F)ccc2S1(=O)=O	inactive
C[C@@H]1CN([C@H](C)CO)C(=O)Cc2cc(NC(=O)CCC(F)(F)F)ccc2O[C@H]1CN(C)Cc1ccc(C(F)(F)F)cc1	inactive
COCC#Cc1ccc2c(c1)O[C@H](CN(C)C(=O)C1CCCCC1)[C@H](C)CN([C@@H](C)CO)S2(=O)=O	inactive
COc1ccc(S(=O)(=O)N(C)C[C@@H]2Oc3c(cccc3N(C)C)C(=O)N([C@@H](C)CO)C[C@@H]2C)cc1	inactive
C[C@H]1CN([C@@H](C)CO)C(=O)Cc2cc(NC(=O)Nc3ccc(C(F)(F)F)cc3)ccc2O[C@H]1CN(C)C(=O)Nc1ccc(C(F)(F)F)cc1	active
C[C@@H]1CN([C@H](C)CO)C(=O)Cc2cc(NC(=O)C3CC3)ccc2O[C@@H]1CN(C)S(=O)(=O)c1ccc(F)cc1	inactive
COCC(=O)Nc1ccc2c(c1)C(=O)N(C)C[C@H](OC)[C@H](C)CN(C(=O)Cc1cccnc1)[C@H](C)CO2	inactive

Structure (SMILES)	cytotoxicity call
C[C@H]1CN([C@@H](C)CO)C(=O)c2c(c3ccccc3n2C)-c2ccccc2CO[C@@H]1CN(C)Cc1ccccc1C(F)(F)F	active
CC(C)NC(=O)N[C@H]1C=C[C@@H](CC(=O)NCCCN(C)C)O[C@@H]1CO	inactive
O=C(C[C@@H]1CC[C@H]2[C@@H](COC[C@H](O)CN2C(=O)Nc2cc(Cl)cc(Cl)c2)O1)N1CCOCC1	inactive
C[C@@H]1CN([C@H](C)CO)C(=O)Cc2cc(NC(=O)Nc3ccc(F)cc3)ccc2O[C@@H]1CN(C)CC1CCCCC1	active
C[C@@H]1CN([C@H](C)CO)C(=O)c2cc(NC(=O)NC3CCCCC3)ccc2O[C@@H](C)CCCCO[C@@H]1CN(C)C(=O)Cc1ccccc1	inactive
C[C@H]1CN([C@@H](C)CO)C(=O)c2cccc(NC(=O)c3ccncc3)c2O[C@H]1CN(C)S(=O)(=O)c1cn(C)cn1	inactive
c1ccc(Cc2nn[nH]n2)cc1	inactive
C[C@H]1CN([C@@H](C)CO)S(=O)(=O)c2ccc(Br)cc2O[C@H]1CN(C)C(=O)c1ccccc1F	inactive
C[C@H](CO)N1C[C@H](C)[C@@H](CN(C)C(=O)Nc2ccccc2)Oc2c(NC(=O)Nc3cccc4ccccc34)cccc2C1=O	inactive
C[C@@H]1CN([C@H](C)CO)C(=O)c2cc(NC(=O)Cn3cnnn3)ccc2O[C@H]1CN(C)C(=O)Nc1ccc(F)cc1	inactive
Cc1noc(C)c1S(=O)(=O)Nc1ccc2c(c1)C(=O)N([C@H](C)CO)C[C@H](C)[C@H](CN(C)Cc1ccccc1)OCCCC[C@H](C)O2	inactive
COCCNC(=O)C[C@@H]1CC[C@@H]2[C@H](COC[C@H](O)CN2C(=O)Nc2ccc3c(c2)OCO3)O1	inactive
C[C@H](CO)N1C[C@H](C)[C@@H](CN(C)S(=O)(=O)c2ccc(F)cc2)Oc2c(NC(=O)Nc3cccc4ccccc34)cccc2C1=O	inactive
COc1ccc2c3c([nH]c2c1)[C@@H](CO)N(C[C@]13CCN(CC1)CC1CCCC1)S(=O)(=O)c1cn(cn1)C	inactive
C[C@@H]1CCCCO[C@H](CN(C)C(=O)c2ccccc2)[C@H](C)CN([C@@H](C)CO)C(=O)c2cc(NC(=O)Nc3ccc(F)cc3)ccc2O1	inactive
O=C(C[C@@H]1CC=CCC[C@@H](Cc2ccc(F)cc2)C(=O)OC[C@H](Cc2c[nH]c3ccccc23)NC1=O)N[C@H](CO)Cc1ccccc1	inactive
O=C(O)Cn1cc2c(n1)CCCC2	inactive
COc1ccc(NC(=O)Nc2ccc3c(c2)C(=O)N([C@H](C)CO)C[C@@H](C)[C@H](CN(C)C(=O)NC2CCCCC2)OCCCC[C@H](C)O3)cc1	inactive
C[C@H](CO)N1C[C@H](C)[C@H](CN(C)C(=O)NC2CCCCC2)OCCCC[C@H](C)Oc2ccc(NS(=O)(=O)c3ccccc3)cc2C1=O	inactive
C[C@H]1CN([C@@H](C)CO)C(=O)Cc2cc(NS(=O)(=O)c3ccccc3)ccc2O[C@@H]1CN(C)Cc1ccc(Cl)c(Cl)c1	inactive
